Experimental data published in PubChem BioAssay AID1508623 (National Center for Advancing Translational Sciences (NCATS), 2021).
Screen size: about 48,000 compounds; about 450 (0.94%) were called active. Another 19% or so got no clear call; they are omitted. Calls follow the shape of the dose curve; as a rule, active = well fitted inhibition curve with a large enough effect; inconclusive = small, poorly fitted or top-dose-only effect; inactive = no such curve, though single readings can be large or run the other way. This is one part of the list.

Experiment: Primary qHTS for Identification of Small Molecule Inhibitors of Huntingtin Promoter Activity; also: nearly all actives have a fitted effect of over 50% in size
Conditions: HEK293 HTT promoter firefly luciferase reporter (activity 0% = vehicle and -100% = no light), 24 h; series mostly up to 57.5 µM; activity change, negative = inhibition: at the top concentration
In short: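 Luminescence was read after Dual-Glo reagent and a 10 min room-temperature incubation. Values were normalized to vehicle (0% activity) and zero RLU (-100% activity). Reporter HEK293 cells had been exposed to compounds (up to 57.5 uM final) for 24 h.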
Potency is read from the fitted curve at half-maximal effect.

SMILES | activity change, negative = inhibition | Potency
NC(=O)Nc1cc(-c2ccc(CN3CCOCC3)cc2)sc1C(N)=O | inactive: 24.1% | –
CCCOc1ccc(CNC(=O)C2CCCN(c3nc4c(C)cc(C)cc4s3)C2)cc1 (stereo not given) | inactive: 18.4% | –
COc1ccc(NC(=O)Cn2c(=O)n(CCCC(=O)NCCc3ccc(C)cc3)c(=O)c3ccccc32)cc1Cl | inactive: -3.77% | –
Cc1ccc(CCNC(=O)c2ccc3c(c2)N(Cc2ccccc2)C(=O)c2ccccc2S3=O)cc1 (stereo not given) | inactive: -10.5% | –
Cc1cccc(NC(=O)c2ccc(F)c(S(=O)(=O)N3CCC4(CC3)OCCO4)c2)c1 | inactive: -37% | –
COc1cc(OC)c(NC(=O)N2CCc3cc(OC)c(OC)cc3C2CC(=O)O)cc1Cl (stereo not given) | inactive: -14.1% | –
CC(C)Cn1c(=O)c2ccccc2n2c(CCC(=O)N3CCN(c4ccccc4)CC3)nnc12 | inactive: 3.6% | –
Cc1ccc2onc(CNC(=O)Nc3cc(F)ccc3F)c2c1 | inactive: -18.1% | –
Cc1ccc2c(c1)Cc1c(nc(-c3ccc(Cl)cc3)nc1SCC(=O)N1CCCCC1)O2 | inactive: -2.51% | –
Cc1ccc(Cl)cc1NC(c1ccc(F)cc1)c1nnc(-c2ccccc2)o1 (stereo not given) | inactive: -32.7% | –
NS(=O)(=O)c1cc2c(cc1C(F)(F)F)NCNS2(=O)=O | inactive: 5.28% | –
CC(C)NC[C@@H](O)COc1ccc(CC(N)=O)cc1 | inactive: 0.667% | –
COc1ccc(Nc2cc(C)nc3c(C)c(C)ccc23)cc1 | inactive: -16.3% | –
O=C(CSc1nnc(-c2ccc(Cl)cc2)o1)Nc1ccc(F)cc1 | inactive: 67.3% | –
CC(=O)N1CCc2c(sc3c2c(=O)n(CCc2ccccc2)c(=O)n3CC(=O)Nc2ccc(C)c(F)c2)C1 | inactive: -23.4% | –
COc1cccc2c1Oc1ncccc1N(c1ccc(C(=O)NCc3ccccc3Cl)s1)C2 | inactive: -24.6% | –
CCOC(=O)c1c(NC(=O)c2ccc(OCC)c(Br)c2)sc2c1CCCC2 | inactive: -19.2% [at 11.5 µM] | –
Cc1cc2oc(=O)c(CC(=O)NCCc3ccccc3F)c(C)c2c2occ(C(C)(C)C)c12 | inactive: 4.02% | –
COc1c(N2C[C@@H]3CCCN[C@H]3C2)c(F)cc2c(=O)c(C(=O)O)cn(C3CC3)c12 | inactive: 1.3% | –
O=c1c2cc3c(cc2nc2sc(Nc4cccc([N+](=O)[O-])c4)nn12)OCO3 | inactive: 0.255% | –

SMILES | activity change, negative = inhibition | Potency
Cc1ccc(C)c(S(=O)(=O)c2nnn3c2nc(N2CCN(C)CC2)c2sccc23)c1 | inactive: -9.55% | –
COc1ccc(CC(=O)NCC(c2cccs2)S(=O)(=O)c2ccc(F)c(C)c2)cc1 (stereo not given) | inactive: -7.46% | –
Cc1cccc(CN2CCC(CNC(=O)Cn3ncc4c([nH]c5ccc(C)cc54)c3=O)CC2)c1 | inactive: 3.07% | –
CCOC(=O)c1cc(S(=O)(=O)NCc2ccc(Cl)cc2)[nH]n1 | inactive: -17.8% | –
Cc1ccccc1CSc1ncc(Cl)c(C(=O)Nc2nc3ccc(F)cc3s2)n1 | inactive: -12.6% | –
COc1ccccc1C(=O)N/C(=C\c1cn(S(=O)(=O)N(C)C)c2ccccc12)C(=O)NCCCn1ccnc1 | inactive: 4.51% | –
Cc1cc2n(n1)CCC(=O)N2Cc1ccc(C(=O)Nc2cc(Cl)ccc2C)cc1 | inactive: -27.2% | –
COc1ccccc1NC(=O)C1=C(C)Nc2nc(SC)nn2C1c1ccccc1Cl (stereo not given) | inactive: 25.3% | –
CCCN(CCC)C(=O)Cn1c(=O)n(-c2cccc(C)c2)c(=O)c2c1c1cc(OC)ccc1n2C | inactive: -17.8% | –
CSc1ccc(-c2nnn(CC(=O)Nc3sc4c(c3C#N)CCC(C(C)(C)C)C4)n2)cc1 (stereo not given) | inactive: 7.5% | –
CCCCOc1ccc(C(C)NC(=O)CN2C(=O)CSc3ccc(S(=O)(=O)N4CCOCC4)cc32)cc1 (stereo not given) | inactive: -24.4% | –
COc1cccc(-c2cc(C(F)(F)F)nc(NCCc3ccc(OC)c(OC)c3)n2)c1 | inactive: -26.8% | –
COc1ccc(-c2[nH]nc3nc(-c4cc(Br)ccc4OC)cc(C(=O)O)c23)cc1 | inactive: -10.2% | –
Cc1c(C(=O)OC2CCCCC2)[nH]c2c1C(=O)CC(c1ccc(F)cc1)C2 (stereo not given) | inactive: -22.8% | –
CC(C)CC(=O)NCC(c1ccc2c(c1)OCO2)N1CCN(c2ccccc2)CC1 (stereo not given) | inactive: -7.39% | –
COc1ccccc1CN1CCC(CNC(=O)c2cnn(-c3ccccc3Cl)c2C2CCN(C(=O)OC(C)(C)C)CC2)CC1 | inactive: -22.1% | –
CCC(=O)Nc1ccc(Cl)c(-c2nc3ccccc3[nH]2)c1 | inactive: 11.5% | –
Cc1cccc(NC(=O)c2ccc(-n3c(C)nnc3C)cc2)c1 | inactive: 4.37% | –
Cc1ccc(-n2ncc3c(N4CCCCCC4)ncnc32)cc1Cl | – | active: 355 nM
COc1ccccc1CNC(=O)CCc1c(C)nc2cc(-c3ccc(Cl)cc3)nn2c1C | – | active: 3980 nM

SMILES | activity change, negative = inhibition | Potency
O=S(=O)(c1ccc(F)cc1)N1CCC(Oc2cccc(C(F)(F)F)c2)CC1 | inactive: -11.5% | –
COc1c(Cl)cc(Cl)cc1C(=O)Nc1cccc(-c2nc3ccccc3o2)c1C | inactive: -12.9% | –
CCn1c(COc2ccc(Cl)cc2Cl)nc2ccccc21 | inactive: 41.7% | –
CCc1ccccc1NC(=O)c1cn(C)c(=O)c2ccccc12 | inactive: -10.9% | –
COc1ccc(S(=O)(=O)N2Cc3ccccc3CC2C(=O)Nc2ccc(C)cc2)cc1OC (stereo not given) | inactive: -23% | –
Cc1cccc(CCNC(=O)c2cc(S(=O)(=O)N3CCCCC3)c[nH]2)c1 | inactive: -13.8% | –
C/C=C/c1ccc(OC)cc1 | inactive: -0.836% | –
Cc1cccc(N2CCN(C(=O)c3ccc4c(c3)N(Cc3ccccc3)C(=O)c3ccccc3S4(=O)=O)CC2C)c1 (stereo not given) | inactive: -27.9% | –
Cc1ccc(C)c(NC(c2ccccc2)c2nnc(-c3ccccc3F)o2)c1 (stereo not given) | inactive: 22.1% | –
Clc1ccc(CCNc2nc3cc(Cl)c(Cl)cc3n3cnnc23)cc1 | inactive: -0.573% | –
COc1ccc(CCN2C(=O)N(c3cccc(C)c3)C(=O)C2CC(=O)Nc2ccccc2)cc1OC (stereo not given) | inactive: -27.8% | –
COc1cc(-c2nc(SCC(=O)Nc3ccc4c(c3)OCO4)c(-c3ccccc3)[nH]2)cc(OC)c1OC | inactive: -14.5% | –
COc1ccc(-c2nnc(SCC(=O)N3CCC(C)CC3)o2)cc1 | inactive: -3.37% | –
COc1ccccc1CNC(=O)CSc1ncc(S(=O)(=O)c2ccc(C)c(Cl)c2)c(=O)[nH]1 | inactive: -14.6% | –
CNC(=O)C1CCC(Cn2c(=O)c3sccc3n(CC(=O)N3CCCC(C)C3)c2=O)CC1 (stereo not given) | inactive: -6.03% | –
CCCN(CCC)CCc1cccc2c1CC(=O)N2 | inactive: 9.49% | –
COCCCNC(=O)C1CCN(Cc2cc3ccccc3n2Cc2cccc(C)c2)CC1 | inactive: -13.3% | –
CCCCOC(=O)c1c(C)oc2c1cc(NS(=O)(=O)c1cc(OC)ccc1OC)c1ccccc12 | inactive: -35.6% | –
COc1ccc(-c2c(C)c3ccc(O)c(CN4CCOCC4)c3oc2=O)cc1OC | inactive: -22.2% | –
CCCN1Cc2cccc(C(=O)Nc3cc(Cl)ccc3C)c2C1=O | inactive: 0.0464% | –
